Among all 110,000 compounds or so, about 230 (0.21%) showed an effect of 50% or more. The list shows a part of the results.
Each compound was assayed against DPAP1 (Plasmodium falciparum, UniProt Q8IIJ9) (assay: primary screen, percent inhibition; read by cleavage of a fluorogenic dipeptide substrate; higher = more effect of the substance).
Set-up: species or system P. falciparum D10 trophozoite lysates; single well
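Also: 30 min substrate incubation versus DMSO and 10 µM JCP410 controls.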

Sequence of DPAP1 (Q8IIJ9 whole entry, looked up): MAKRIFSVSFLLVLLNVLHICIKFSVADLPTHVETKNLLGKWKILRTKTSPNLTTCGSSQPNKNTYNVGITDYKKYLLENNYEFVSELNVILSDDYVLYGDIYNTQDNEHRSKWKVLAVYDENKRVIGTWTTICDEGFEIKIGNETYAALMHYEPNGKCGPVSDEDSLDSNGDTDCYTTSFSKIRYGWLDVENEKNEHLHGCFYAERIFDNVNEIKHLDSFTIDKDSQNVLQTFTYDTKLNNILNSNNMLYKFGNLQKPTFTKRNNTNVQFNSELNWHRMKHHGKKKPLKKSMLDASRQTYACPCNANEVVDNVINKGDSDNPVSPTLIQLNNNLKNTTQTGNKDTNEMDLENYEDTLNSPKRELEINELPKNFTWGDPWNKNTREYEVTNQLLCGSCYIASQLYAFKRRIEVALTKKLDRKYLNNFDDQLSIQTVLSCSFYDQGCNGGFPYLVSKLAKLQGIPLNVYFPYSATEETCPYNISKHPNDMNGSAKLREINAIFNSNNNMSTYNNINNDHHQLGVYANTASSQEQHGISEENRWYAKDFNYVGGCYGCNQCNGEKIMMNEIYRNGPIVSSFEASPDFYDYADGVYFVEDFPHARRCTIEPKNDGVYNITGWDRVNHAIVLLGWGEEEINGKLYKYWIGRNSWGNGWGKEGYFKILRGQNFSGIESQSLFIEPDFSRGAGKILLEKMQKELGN

| Compound | % Inhibition @ 10 uM |
| --- | --- |
| COc1cc(CNC(=O)c2cc(C)[nH]n2)cc(OC)c1OC | -1.08% |
| CC12C(=O)N(c3ccc(Cl)c(Cl)c3)C(=O)C1C1C=CC2C1 (stereo not drawn) | 3.84% |
| Cc1ccc(C)c(OCCN2CCCC2)c1 | -0.603% |
| CCCCCOc1ccc(NC(=O)C2CC(=O)N(c3ccc(Br)cc3)C2)cc1 (stereo not drawn) | 0.385% |
| Cc1cccc(CNc2nc(N)n(-c3ccccc3)n2)c1 | 0.778% |
| O=C(Nc1cnn(C23CC4CC(CC(C4)C2)C3)c1)c1cc(-c2ccccc2O)no1 | 1.64% |
| COc1ccc(C2=N/C(=C/c3ccc(C(C)C)cc3)C(=O)O2)cc1OC | -3.62% |
| O=C(CSc1nnc(-c2ccccc2)o1)N1CCCCC1 | 4.58% |
| CN1C(=O)NC(=O)/C(=C\c2ccc(-c3ccc(OC(F)(F)F)cc3)o2)C1=O | 0.9% |
| O=C(c1cnn2c(C(F)(F)F)cc(-c3ccccc3)nc12)N1CCCCC1 | -1.99% |
| COc1cc2c(cc1OC)C(=O)C(C)(C)N(Cc1ccccc1)C2 | 0.774% |
| Cc1cc(Cl)ccc1OCC(=O)Nc1ccc(S(=O)(=O)N2CCCCCC2)cc1 | 4.11% |
| Cc1ccccc1-c1nnc(SCC(=O)N2CCCCC2C)o1 (stereo not drawn) | -2.8% |
| C=C1CC(OC(C)=O)C(C)(C)CC2=C(C)CCC12 (stereo not drawn) | 4.73% |
| O=C(CSc1nc2c(c(=O)n1CCc1ccccc1)SCC2)NC1CCCC1 | -0.264% |
| CCOC(=O)NC(=O)/C=C(\C)NCCc1ccccc1 | 20.6% |
| O=C(Nc1ccccc1F)c1ccco1 | -3.26% |
| CCOC(=O)c1c(C)n(C)c2ccc(OCC(O)Cn3c(C)nc4ccccc43)cc12 (stereo not drawn) | -1.33% |
| CC(C)CC(C(=O)NCC#N)c1cccc(-c2ccc(N(C)C)cc2)c1 (stereo not drawn) | 1.7% |
| CCCCn1c(SCC(=O)Nc2ccccc2Cl)nc2c1c(=O)n(C)c(=O)n2C | -7.4% |
| CC(C)c1ccc(/C=C2/C(=N)N3C(=NC2=O)SN=C3S(=O)(=O)C(C)C)cc1 | 0.163% |
| O=C1CCCC2=C1C(c1ccc([N+](=O)[O-])cc1)Nc1ccc3ncccc3c12 (stereo not drawn) | -0.736% |
| CC(C)(C)C(=O)NCc1cn2ccsc2n1 | 4.14% |
| Cn1c(CNC(=O)c2ccc(F)cc2)nc2ccccc21 | -4.86% |
| COc1cc(CN2CCN(Cc3ccc4ccccc4c3)CC2)cc(OC)c1OC | 7.1% |

| Compound | % Inhibition @ 10 uM |
| --- | --- |
| CN(Cc1ccc(-n2cccn2)cc1)C(=O)c1cnn2c1NC(c1ccco1)CC2C(F)(F)F (stereo not drawn) | -0.725% |
| O=C(Cn1c(=O)c2sccc2n(Cc2cccc(Cl)c2)c1=O)NCc1ccco1 | -3.77% |
| CCOC(=O)c1sc(NC(=O)CCCCCN2C(=O)c3ccccc3C2=O)nc1C | 4.86% |
| COc1ccc(C(=O)/C=C/c2ccc([N+](=O)[O-])cc2)c(OC)c1 | 0.467% |
| Cc1ccc(C(CC(=O)NC2CCCC2)N2Cc3ccccc3C2=O)cc1 (stereo not drawn) | 2.98% |
| Cc1ccccc1-n1c(SCc2c(F)cccc2F)nc2nncc-2c1O | -2.38% |
| CCn1c(=N)n(CCOc2cccc(C)c2)c2ccccc21 | 0.528% |
| CCN1C(=O)C2C3C=CC(C3=C3C4CC5CC(C4)CC3C5)C2C1=O (stereo not drawn) | -4.76% |
| CNC(=O)C1CCN(S(=O)(=O)c2ccc(OC)c(OC)c2)CC1 | -3.74% |
| COc1ccc(-c2cc3c(=O)n(CC(=O)NC(C)CCc4ccccc4)ncn3n2)cc1 (stereo not drawn) | 2.27% |
| CC(C)(C)Nc1nc(Oc2ccc(O)nn2)nc(N2CCOCC2)n1 | -0.958% |
| CC1(C)Cc2ccccc2-c2nnc(-c3ccncc3)n21 | -0.436% |
| CCCOc1ccc(C(=O)C2=C(O)C(=O)N(CCN(C)C)C2c2ccccc2F)cc1C (stereo not drawn) | 3.15% |
| CCCCOc1ccc(S(=O)(=O)N2CCN(c3ccc(F)cc3)CC2)cc1 | 2.03% |
| COc1ccc(C(=O)N2C3C=CC(C3)C2(C(F)(F)F)C(F)(F)F)cc1 (stereo not drawn) | 1.72% |
| NS(=O)(=O)c1cc(C(=O)Nc2ccc3c(c2)OCO3)c(Cl)cc1Cl | -2.58% |
| CN1CCCN(C(=O)/C(=C/c2cccc(F)c2)NC(=O)c2ccccc2Br)CC1 | 1.02% |
| COc1ccc(NC(=O)/C=C\C(=O)O)cc1 | -1.77% |
| N#CC1=C(SCC(=O)Nc2nccs2)NC(=O)CC1c1cccs1 (stereo not drawn) | 2.38% |
| Cc1cc2oc(C(=O)N(Cc3ccccc3)C3CCS(=O)(=O)C3)c(C)c2cc1C (stereo not drawn) | 0.389% |
| COCc1nc2ccccc2n1CCOc1ccccc1C | -3.79% |
| Cc1ccc(-c2nn(CC(=O)NC3CCCc4ccccc43)c(=O)c3ccccc23)cc1 (stereo not drawn) | -3.44% |
| Cc1ccc(/C=C2\SC(N3CCN(Cc4ccccc4)CC3)=NC2=O)cc1 | -1.42% |
| O=C(O)COc1nc(-c2ccccc2)sc1C(=O)O | -2.83% |
| CC1CCN(C(=O)c2nn(C)c3c2CCc2sccc2-3)CC1 | 2.98% |

| Compound | % Inhibition @ 10 uM |
| --- | --- |
| O=C(NC1=NCCS1)c1ccc(N2C(=O)c3ccccc3C2=O)cc1 | -2.32% |
| CCN(C(=O)COc1ccc(C)cc1Br)c1ccccc1 | -3.58% |
| NC(=O)C1CCCN(C2CCC(c3ccccc3)CC2)C1 (stereo not drawn) | -3.27% |
| COc1cc(OC)cc(C(=O)N2CCN(Cc3cccc(Cl)c3)CC2)c1 | -14.4% |
| CCOC(=O)Nc1ccc(-c2cccc(C(CS(=O)(=O)Cc3ccccc3OC(F)F)C(=O)NCC#N)c2)cc1 (stereo not drawn) | -3.49% |
| CC[C@H](NC(=O)[C@@H](NC(=O)c1ccc(-c2ccccc2Cl)cc1)C1CCCCC1)C(=O)c1nc2ccccc2o1 | -1.82% |
| COC(=O)c1c(C)[nH]c(C(=O)CSc2nnc3ccccn23)c1C | -1.4% |
| CC1=C(C(=O)OC(C)C)C(c2c(O)ccc3ccccc23)NC(=O)N1 (stereo not drawn) | -1.29% |
| O=C(CCc1ccc(S(=O)(=O)NCCc2ccccc2)cc1)N1CCc2ccccc2C1 | 6.42% |
| Clc1ccc(-n2cc(-c3ccccc3)c3c(NCCCN4CCOCC4)ncnc32)cc1 | -3.56% |
| Cc1nnc(SCC(=O)NCCC(C)C)c2nn(-c3ccccc3)c(C)c12 | 0.535% |
| O=C1c2ccccc2C(NCc2cccnc2)N1Cc1cccnc1 (stereo not drawn) | -10.8% |
| COc1ccc(C(=O)Nc2ccc(Cl)c(Cl)c2)cc1 | -6.86% |
| O=C(Nc1ccc(Oc2ccccc2)cc1)C1CC1 | -4.7% |
| N#CCNC(=O)[C@@H](Cc1ccccc1C#N)NC(=O)OCc1ccccc1 | -4.82% |
| COc1cc(C2CC(=O)Nc3cc4c(cc32)OCO4)cc(OC)c1OC (stereo not drawn) | -1.52% |
| O=C(Nc1ccccc1)c1ccc(O)c([N+](=O)[O-])c1 | 6.15% |
| O=C(NCc1ccc(F)cc1)NCc1noc2ccccc12 | 2.75% |
| Nc1c(C(=O)Nc2ccc3c(c2)OCO3)sc2nc3c(cc12)CCCC3 | 4.42% |
| O=C(O)C(=O)c1cccnc1O | -1.85% |
| Cn1c(=O)c2c(nc(O)n2C)n(Cc2ccccc2)c1=O | -1.04% |
| CCc1ccc2oc(C(=O)Nc3cccnc3)cc(=O)c2c1 | 0.248% |
| CN1CCc2c(sc3c2C(=O)NC(c2ccccn2)N3)C1 (stereo not drawn) | 4.54% |
| CC(C)(C)C1CCC(N2CCCC(O)C2)CC1 (stereo not drawn) | 3.48% |
| CCOc1ccc(Cc2nc3ccccc3[nH]2)cc1 | 2.45% |

| Compound | % Inhibition @ 10 uM |
| --- | --- |
| Cc1ccc(/N=C2\CCCN2C(=O)c2ccc(F)cc2)cc1Cl | -2.45% |
| O=C(C1CCC(CNS(=O)(=O)c2cccc3nsnc23)CC1)N1CCn2c1nc1ccccc12 (stereo not drawn) | -4.1% |
| N#CCCS(=O)(=O)c1ccc(Cc2ccc(S(=O)(=O)CCC#N)cc2)cc1 | -1.77% |
| O=C(NCC1COc2ccccc2O1)c1ccccc1 (stereo not drawn) | -5.29% |
| COCCNC(=S)N1CCc2cc(OC)c(OC)cc2C1COc1cc(=O)oc2ccccc12 (stereo not drawn) | 0.813% |
| COC(=O)c1ccc2oc(=O)c(-c3nc(-c4nonc4N)no3)cc2c1 | 2.96% |
| CCc1nc2nc(C)cc(NCCc3ccccc3)n2n1 | 3% |
| Cc1cccc(NC(=O)Nc2noc3c2COc2ccccc2-3)n1 | 0.589% |
| COc1ccc(CCNCc2ccc(C(=O)O)s2)c(OC)c1 | 1.03% |
| Cc1cc(O)nc(SC(C)C(=O)Nc2ccccc2C)n1 (stereo not drawn) | -4.01% |
| CC(=O)c1ccc(-c2ccc(/C=c3\sc4nc(C5COc6ccccc6O5)nn4c3=O)o2)cc1 (stereo not drawn) | 0.222% |
| CCOC(=O)c1c(C)oc2cc(Br)c(OC)c(Br)c12 | -2.63% |
| COc1ccccc1C1CC2=NC(C)=C(C(=O)OC3CCCC3)C(c3ccsc3)C2=C(O)C1 (stereo not drawn) | 3.87% |
| CC(=O)C1=C(C)OC(N)=C(C#N)C1c1cc2c(cc1[N+](=O)[O-])OCO2 (stereo not drawn) | -1.29% |
| C=CCN1C(=O)C(NC(=O)c2ccccc2)(C(F)(F)F)N=C1c1ccccc1 (stereo not drawn) | -4.78% |
| CCOc1ccc(C2=CC(c3ccc(Cl)cc3)n3nnnc3N2)cc1 (stereo not drawn) | 1.73% |
| COC(=O)CCP(C)(=O)OCC(C)C (stereo not drawn) | -0.415% |
| Cc1cc(NCCCN2CCCC2=O)n2c(nc3ccccc32)c1C#N | -5.96% |
| CCOc1ccc(CNCCSc2nnnn2-c2ccccc2)cc1OC | 0.596% |
| C[C@@H](C[C@H](NC(=O)c1ccc(-c2ccccc2Cl)nc1)C(=O)NC1(C#N)CCS(=O)(=O)CC1)c1ccccc1 | -4.82% |
| O=C(NCc1ccc2c(c1)OCO2)c1c(F)cccc1F | 5.79% |
| O=c1oc(-c2ccccc2[N+](=O)[O-])nc2ccccc12 | -6.09% |
| CCO/C(O)=C1\SCC(C(=O)NCCCN2CC(C)CC(C)C2)N=C1C (stereo not drawn) | 1.72% |
| CCOc1ccccc1C1C2=C(O)CCCC2=NC(C)=C1C(=O)OCCSCC (stereo not drawn) | -5.28% |
